Consider 110 compounds from PubChem BioAssay AID1240 (Sanford-Burnham Center for Chemical Genomics, 2008).

Screen size: about 50,000 compounds; about 800 (1.6%) showed an effect of 50% or more. This is one part of the list.

The test concerns the target Bcl-2-like protein 10 (Homo sapiens) (UniProt Q9HD36). As to the kind of experiment: Phenotype converters, Bcl-B/TR3 peptide binding displacement, primary biochemical FP (AID 1240).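 Further: 0% = Bcl-B with tracer peptide and DMSO and 100% = tracer peptide lacking Bcl-B.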 The following applies: GST-Bcl-B / FITC-TR3 peptide fluorescence polarization; stronger effect = higher value; compound at 3.75 mg/L. In general terms: Fluorescence polarisation rises when a labelled molecule tumbles more slowly, as on binding a larger partner.
Chain of UniProt Q9HD36 (Q9HD36 whole entry, looked up): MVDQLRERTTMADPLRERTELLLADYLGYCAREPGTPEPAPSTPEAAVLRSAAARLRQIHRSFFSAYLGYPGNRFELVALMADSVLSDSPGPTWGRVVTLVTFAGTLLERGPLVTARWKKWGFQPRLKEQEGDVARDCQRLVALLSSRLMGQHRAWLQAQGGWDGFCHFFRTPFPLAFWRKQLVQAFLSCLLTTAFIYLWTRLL
`COc1ccccc1NC(=O)CN(c1ccc(Cl)cc1Cl)S(=O)(=O)c1ccccc1`: the displacement was -17.6%. Take `COc1ccc(-c2nnc(NC(=O)c3cccc4ccccc34)s2)cc1`: the displacement came out at 6.1%. The figure for `COc1cccc(-n2c(O)c(C=Nc3ccc(F)cc3)c(=O)[nH]c2=O)c1` is 7.3%; for `Cc1ccc(S(=O)(=O)Nc2ccc(O)c(S(=O)(=O)c3ccc(C)cc3)c2)cc1` it is 3.8%; for `CCCCn1c(/N=C/c2ccc3c(c2)OCO3)nc2ccccc21` it is 5.4%.

With `CCC(=Nc1cc(Cl)ccc1O)c1c(C(F)(F)F)[nH]n(-c2nc3ccccc3s2)c1=O`, the displacement was -6%. In the case of `CCOc1ccccc1C(=O)Nc1ccc(N2CCOCC2)cc1`, the displacement turned out to be 3.2%. Consider `O=C(O)CC1S/C(=N/N=C/c2ccccc2)N(c2ccc(O)cc2)C1=O` (stereo not given), for which the displacement is 9%. Take `COc1ccc(N=Cc2ccc(O)c(OC)c2)cc1`: the displacement came to 3.3%.

Regarding `O=C(CCC(=O)N/N=C/c1cc(Br)ccc1O)N/N=C\c1cc(Br)ccc1O`, the displacement was determined as 7.8%. For the compound `O=C(NCc1ccco1)c1ccc(Cl)c([N+](=O)[O-])c1`, the displacement is 0.5%.

As for `CCN(CC)c1ccc(/C=C2/SC(=O)N(CNc3ccc(OC)c(Cl)c3)C2=O)cc1`, the displacement was -2.5%. The figure for `CCOc1ccc(N(CC(=O)NCCc2ccccc2)S(=O)(=O)c2ccc(SC)cc2)cc1` is 5.6%; for `Nc1nonc1-c1nc2ccccc2n1Cc1ccc(F)cc1` it is 0.6%; for `O=C(c1nn2c(C(F)(F)F)cc(-c3ccccc3)nc2c1Br)N1CCCCC1` it is -8%. The figure for `CCOC(=O)c1c(N)sc(C(=O)Nc2cccc(C(F)(F)F)c2)c1C` is -0.7%; for `Cc1[nH]n(-c2ccc([N+](=O)[O-])cc2)c(=O)c1C=NCc1ccc(Cl)cc1` it is 11.8%. The figure for `Cc1ccc(OCC(=O)N2CCC(Cc3ccccc3)CC2)c(Br)c1` is -6%; for `O=C(NC(NC(=S)Nc1ccc(Cl)c(Cl)c1)C(Cl)(Cl)Cl)c1ccccc1F` (stereo not given) it is 0.6%. As to `CCOc1c(/C=C2\C(=O)NN(c3ccccc3)C2=O)cccc1OC`, the displacement came out at 11.9%. The figure for `CC1(C)Cc2cc3c(=O)n(-c4ccccc4)c(=S)[nH]c3nc2CO1` is -2.1%. Take `CCOC(=O)C1=C(C)NC2=C(C(=O)c3ccccc32)C1c1cccs1` (stereo not given): the displacement was -2.1%.

Regarding `CCCC(=O)NC(c1cccc([N+](=O)[O-])c1)c1c(O)ccc2ccccc12` (stereo not given), the displacement was determined as 8.4%. Consider `Cc1nnc(N/N=C/c2ccccc2Br)[nH]c1=O`, for which the displacement is -14.4%. As for `COC(=O)CN(c1cccc(OC)c1)S(=O)(=O)c1ccccc1`, the displacement is -9.7%. For `Cc1ccccc1NS(=O)(=O)c1cccc(S(=O)(=O)c2ccc(Cl)cc2)c1`, the displacement is -10.2%. Consider `CCOc1ccccc1NC(=O)CN(c1ccc(OC)cc1OC)S(C)(=O)=O`, for which the displacement amounted to 8.7%. Take `COc1ccc(C(=O)Nc2cccc(NC(=O)c3ccc(F)cc3)c2)cc1Br`: the displacement was determined as 2.2%. The result for `COc1ccc(C(=O)NC(N2CCOCC2)C(Cl)(Cl)Cl)cc1OC` (stereo not given) reads 12.2%; that for `C/C(=N/NC(=O)c1ccc(Br)cc1)c1ccc(Cl)cc1`, 3.9%. In the case of `O=C1CC(NC2CCCC2)C(=O)N1c1ccc(Cl)cc1` (stereo not given), the displacement is -3.6%. In the case of `Cc1ccc(NC(=O)CC2Nc3cc(C)c(C)cc3NC2=O)cc1` (stereo not given), the displacement was -18.7%. The result for `O=C(COc1ccccc1[N+](=O)[O-])Nc1ccc(Cc2ccncc2)cc1` reads 14%; that for `Nc1nnc(CC(=O)N/N=C/c2ccc(OCc3ccc([N+](=O)[O-])cc3)cc2)s1`, 3.9%; that for `O=C(Cc1c(O)c2ccccc2[nH]c1=O)NCCc1ccccc1`, 0.4%. The figure for `COc1cccc(OC)c1C(=O)Nc1ncn[nH]1` is 14.8%; for `CC(C)(C)c1ccc(OCCOc2ccc(Cl)cc2/C=N/n2cnnc2)cc1` it is 1.2%; for `CC(=O)C1=C(c2ccccc2)C(=O)c2ccccc2C1=O` it is -4.7%. `O=C(CC12CC3CC(CC(C3)C1)C2)NC1CCCCC1`: the displacement came out at 10.3%. The figure for `O=C(/C=C/c1ccccc1)NC(=S)Nc1ccccc1` is 17.5%; for `Oc1ccc2[nH]c(-c3ccccc3)nc2c1CN1CCCCC1` it is -25.1%.

For the compound `COc1ccc(Nc2ncnc3c2cnn3-c2ccccc2)cc1`, the displacement is -0.9%. The result for `O=C1NC(=O)N(c2ccc(Br)cc2)C(=O)/C1=C/c1cccs1` reads -42.8%; that for `Clc1ccccc1-c1nc(N2CCCC2)c2ccccc2n1`, 17.9%. As to `Cc1c(NC(=S)NC(=O)c2ccc(Cl)cc2)cccc1-c1nc2ncccc2o1`, the displacement is 40.4%. The result for `Cc1cc(C)nc(SCC(=O)N2c3ccccc3Sc3ccc(Cl)cc32)n1` reads 7.9%; that for `CC(C)(C)c1ccc(S(=O)(=O)Nc2nc3ccccc3s2)cc1`, -4.9%; that for `Cc1ccccc1NC(=O)C(=O)NNC(=O)COc1ccc(Cl)cc1`, -6.4%.

Consider `Cc1ccc(NC(=S)NN2CCN(C)CC2)cc1`, for which the displacement came out at 5.2%. As for `CCc1cc(=O)oc2cc(OC/C=C/c3ccccc3)ccc12`, the displacement is 7.4%. For the compound `CN1CCN(CCCC(=O)c2ccc(F)cc2)CC1`, the displacement was -1.1%. The result for `COc1ccc(C2/C(=C(/O)c3ccc(Br)cc3)C(=O)C(=O)N2CCc2ccccc2)cc1OC` (stereo not given) reads -0.7%; that for `Cc1nc2ccc(Br)cn2c1C(=O)NN=C1CCCCCC1`, -44.3%. In the case of `O=Cc1ccc(-c2ccccc2OC(F)(F)F)o1`, the displacement is -9.9%. The result for `O=C(COc1ccc(Cl)cc1Br)N/N=C/c1cc([N+](=O)[O-])ccc1O` reads 14.8%; that for `C/C(Nc1ccc(C)cc1)=C(\C#N)C(=O)NC1CCCCC1`, -0.6%. The result for `COc1ccc(OC)c(NC(=O)/C=C/c2ccc(OC)c(OC)c2)c1` reads 5.2%; that for `CC(C)(NO)/C(=N\O)c1ccc(F)cc1`, 15.1%; that for `CCOC(=O)C1=C(O)/C(=C/c2ccc(N(C)C)cc2)SC1=Nc1ccc(F)cc1`, 142%. The result for `CCOc1ccc(N(CC(=O)NCc2ccccc2C)S(C)(=O)=O)cc1` reads -5.7%; that for `O=C(NNC(=O)c1ccccc1[N+](=O)[O-])Nc1ccccc1`, -2.6%; that for `Cc1nc2ccc(NC(=O)c3ccc(S(=O)(=O)N4CCOCC4)cc3)cc2s1`, -3.6%. As for `COc1cc(OC)c(/C=N/N2CCN(c3ccccc3)CC2)c(OC)c1`, the displacement was found to be 2.5%. In the case of `CC1=C(C(=O)OC2CCCCC2)C(c2cccc([N+](=O)[O-])c2)C2=C(CCCC2=O)N1` (stereo not given), the displacement stood at 13.1%. The figure for `CC(=O)Nc1ccc(S(=O)(=O)NCCC(C)C)cc1` is 4.5%. The figure for `CCOC(=O)/C(=C/c1ccc(O)cc1)C(C)=O` is 7.9%.

As for `Cc1cc(C(=O)N(Cc2ccccc2)Cc2ccccc2)ccc1[N+](=O)[O-]`, the displacement was 32.9%.

`CC(C)CC(=O)NC(C(Cl)(Cl)Cl)S(=O)(=O)c1ccccc1` (stereo not given): the displacement worked out at 2.8%. As for `COc1ccc(-n2nc3cc(C)c(NC(=O)c4ccc(Cl)cc4Cl)cc3n2)cc1`, the displacement is -0.6%. As to `NC(=O)c1c(NC(=O)CCc2ccccc2)sc2c1CCCCCC2`, the displacement was 15.7%. As for `Cc1ccccc1NC(=O)/C=C/c1cccc(C(F)(F)F)c1`, the displacement turned out to be 12.4%. Turning to `CC(=O)c1c(-c2ccc(-c3ccccc3)cc2)nc2n(C)c3ccccc3n12`, the displacement came out at 4%.

For `O=C(CC1Sc2ccc(C(F)(F)F)cc2NC1=O)Nc1cccc(C(F)(F)F)c1` (stereo not given), the displacement was -1.9%.

On to `CCOC(=O)N1CCN(C(=O)COc2ccc3ccccc3c2)CC1`, for which the displacement turned out to be 12.5%.

Regarding `O=C1c2ccccc2C(=O)N1/N=C/c1ccc(Oc2ccc([N+](=O)[O-])cn2)cc1`, the displacement turned out to be 14.6%. The figure for `CCCOC(NC(=O)CC)(C(F)(F)F)C(F)(F)F` is -5.3%; for `CCOC(=O)C(CC)Oc1ccc2c(C)c(CC)c(=O)oc2c1` (stereo not given) it is -0.6%; for `COc1ccc(CC(=O)Nc2sc3c(c2C(=O)Nc2ccccc2C)CCCC3)cc1` it is -11.9%. The result for `O=C1C(=Cc2ccccc2F)C(=O)c2ccccc21` reads 14%. Take `CC(C)N/C=C(/c1cc(O)ccc1O)[N+](=O)[O-]`: the displacement is 23.1%. Consider `COc1ccc(CNc2cccc(C)c2)cc1OC`, for which the displacement came out at 16.2%. With `O=C(CCCOc1ccccc1)Nc1ccc(Cl)cc1`, the displacement is -0.7%. The figure for `COc1cccc(NC(=O)Cc2ccccc2[N+](=O)[O-])c1` is 1.8%; for `CCn1c2ccccc2c2cc(CN3CCN(Cc4cccc(OC)c4)CC3)ccc21` it is -3%; for `CC(=O)c1ccc(N2C(=O)c3ccccc3C2=O)cc1` it is 2.1%.

For `Cc1cccc(NC(=O)COc2cc(C)c(Cl)c(C)c2)c1C`, the displacement is -6.9%. The figure for `COc1cc(N/N=C/c2ccc(Br)cc2)ncn1` is -7.7%; for `O=C(CN(Cc1ccccc1)S(=O)(=O)c1ccc(Br)cc1)N/N=C/c1c(O)ccc2ccccc12` it is 9%; for `c1ccc2c(c1)ccc1nnc(-c3ccc4c(c3)OCO4)n12` it is 7.3%.

Take `N#Cc1c(N)nc2c(c1-c1ccc(F)cc1)CCCCC2`: the displacement is 3.8%.

Turning to `CCN(CC)c1ccc(/C=C(\C#N)c2nn(CCO)c(N)c2C#N)cc1`, the displacement stood at 68.2%. The figure for `O=C(O/C(=C/c1nccn1Cc1ccc(Cl)cc1)c1ccccc1)c1ccccc1` is -1.2%; for `COc1ccc(C2SCC(=O)N2c2ccc(Cl)cc2)cc1` (stereo not given) it is -2.1%; for `CCN1C(=O)/C(=C\c2ccc(C)cc2)C(C(=O)OC)=C1C` it is 86.2%. On to `COc1ccc(N2CC(C(=O)N/N=C/c3ccc(OC)c(OC)c3)CC2=O)cc1` (stereo not given), for which the displacement was found to be 0.8%.

With `Cc1ccc(-n2cnc3c(sc4nccc(N(C)C)c43)c2=O)cc1`, the displacement is -9.5%. In the case of `O=C(NCC1CCCO1)c1ccc(I)cc1` (stereo not given), the displacement worked out at 8.5%. The result for `COC(=O)C1=C(C)N(CC2CCCO2)C(=O)/C1=C\c1ccccc1OC` (stereo not given) reads 5.6%. For `CCc1cc2c(=O)n(-c3ccccc3)c(SCC(=O)c3ccc(Cl)cc3)nc2s1`, the displacement is 2.8%.

`Cc1nc(N(CCC(N)=O)CCC(N)=O)sc1C`: the displacement came out at 5.9%. On to `Cc1cc(C)c(S(=O)(=O)Nc2ccc(Cl)c3cccnc23)c(C)c1`, for which the displacement came to 4.4%. The result for `CC(C)c1ccc(NC(=O)C(=O)NCc2ccco2)cc1` reads -10.4%. On to `Cc1cccc(Cl)c1NC(=O)C1CC(=O)N(c2ccc(F)cc2)C1` (stereo not given), for which the displacement is 6.4%. For `O=C1C2C(C(=O)N1c1ccc(Br)cc1)N1CCCN1C2c1cccc([N+](=O)[O-])c1` (stereo not given), the displacement is -3.8%. The figure for `Cc1cc(N2CCOCC2)c2c(c1)c1ccccc1n2C` is 11.4%. The figure for `Cc1ccc(N2C(=O)c3ccccc3NC2c2ccccc2)cc1Cl` (stereo not given) is 5.8%; for `C=C(C)c1cccc(C(C)(C)NC(=O)NCCc2ccc(S(N)(=O)=O)cc2)c1` it is 10.6%. Consider `COCCOC(=O)C1=C(C)NC(=O)CC1c1cccc(Cl)c1Cl` (stereo not given), for which the displacement was -7.8%. Regarding `O=C1Oc2ccc(Cl)cc2C1c1ccccc1` (stereo not given), the displacement was found to be 11.6%. As to `COc1ccc(C=Nc2ccc(C)c(F)c2)cc1OC`, the displacement is -5.3%.
